Test results: the supplement of paper PMC4604168 (melanoma cell lines)
The list shows a part of the results. Many values rest on one well or one pass, so single values are uncertain.

Columns and labels:
Assay in all cases: cell count relative to DMSO control; melanoma cells; higher = more viable cells
Settings in all cases: library dose: low library concentration; 72 h
WM115 = tested on: WM115
WM1716 = tested on: WM1716
WM1745 = tested on: WM1745
WM3526 = tested on: WM3526
WM3619 = tested on: WM3619
WM451Lu = tested on: WM451Lu
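Further: cell number obtained by counting DAPI-stained nuclei in high-throughput microscope images with image analysis software, screen run in 1,536-well plates.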

Structure (SMILES)	cell count (WM115) [%]	cell count (WM1716) [%]	cell count (WM1745) [%]	cell count (WM3526) [%]	cell count (WM3619) [%]	cell count (WM451Lu) [%]
Cn1cnc2c(F)c(Nc3ccc(Br)cc3Cl)c(C(=O)NOCCO)cc21 [selumetinib] + OCc1c[nH]c2ccccc12 [Indole-3-carbinol] (first compound 0.015 µM, partner dose 0.8 µM)	87	91.1	86.6	84.3	62.7	109
C[C@]1(O)C[C@@H](c2nc(-c3ccc4ccc(-c5ccccc5)nc4c3)c3c(N)nccn32)C1 + O=C(CCCCCCC(=O)Nc1ccccc1)NO [vorinostat] (first compound 0.4 µM, partner dose 0.08 µM)	104	97.3	90.5	70.3	81.6	80.5
Cn1cnc2c(F)c(Nc3ccc(Br)cc3Cl)c(C(=O)NOCCO)cc21 [selumetinib] + Nc1nc(F)nc2c1ncn2[C@@H]1O[C@H](CO)[C@@H](O)[C@@H]1O [fludarabine] (first compound 0.015 µM, partner dose 0.2 µM)	101	139	95	23	89.7	53.5
C[C@]1(O)C[C@@H](c2nc(-c3ccc4ccc(-c5ccccc5)nc4c3)c3c(N)nccn32)C1 + Cc1ccc(NC(=O)c2cccc(N(C)C)c2)cc1NC(=O)c1ccc(O)cc1 [ZM336372] (first compound 0.4 µM, partner dose 2 µM)	131	101	74	85.2	90.6	90.4
C[C@]1(O)C[C@@H](c2nc(-c3ccc4ccc(-c5ccccc5)nc4c3)c3c(N)nccn32)C1 + COc1cc(N2CCC(N3CCN(C)CC3)CC2)ccc1Nc1ncc(Cl)c(Nc2ccccc2S(=O)(=O)C(C)C)n1 [NVP-TAE684] (first compound 0.4 µM, partner dose 0.08 µM)	98.3	116	80.2	71.4	109	104
